The source of these data is the supplement of paper PMC4604168 (melanoma cell lines).

The list shows a part of the results. Many values rest on one well or one pass, so single values are uncertain.

Common to all, as to experiment: cell count relative to DMSO control; melanoma cells; higher = more viable cells
Common to all, as to conditions: library dose: standard library concentration; 72 h

Test [1] concerns A101D.
Test [2] relates to A2058.
Test [3] concerns A375.
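Note: cells treated in 1,536-well plates, then fixed and DAPI-stained, with nuclei counted from automated high-throughput microscope images.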

Consider `N#CC[C@H](C1CCCC1)n1cc(-c2ncnc3[nH]ccc23)cn1` [ruxolitinib] + CN(c1ncccc1CNc1nc(Nc2ccc3c(c2)CC(=O)N3)ncc1C(F)(F)F)S(C)(=O)=O [PF562271] (first compound 5 µM, partner dose 0.4 µM), for which the cell count in test [1] is 117%; in test [2] it was 52.2%; in test [3], 99.3%.
On to `CC[C@]1(O)C[C@H]2CN(CCc3c([nH]c4ccccc34)[C@@](C(=O)OC)(c3cc4c(cc3OC)N(C=O)[C@H]3[C@@](O)(C(=O)OC)[C@H](OC(C)=O)[C@]5(CC)C=CCN6CC[C@]43[C@@H]65)C2)C1` [vincristine] + NC(=O)c1ccc(N(C(N)=O)c2c(F)cccc2F)nc1-c1ccc(F)cc1F [VX702] (first compound 0.0005 µM, partner dose 2 µM), for which the values for the cell count in test [1], in test [2] and in test [3] were 76.8%, 72.2% and 86.3%, respectively.
For `Cc1cc(Nc2cc(N3CCN(C)CC3)nc(Sc3ccc(NC(=O)C4CC4)cc3)n2)n[nH]1` [Tozasertib] + O=C(/C=C/c1cccnc1)NCCCCC1CCN(C(=O)c2ccccc2)CC1 [FK866] (first compound 0.03 µM, partner dose 0.05 µM), the cell count in test [1] is 75.3%; in test [2] it was 87.7%; in test [3] it was 69.8%.
As to `Cc1cc(Nc2cc(N3CCN(C)CC3)nc(Sc3ccc(NC(=O)C4CC4)cc3)n2)n[nH]1` [Tozasertib] + Cc1cc([N+](=O)[O-])ccc1NS(=O)(=O)c1cc(Cl)ccc1Cl [FH535] (first compound 0.03 µM, partner dose 5 µM), the cell count in test [1] is 62.1%; in test [2] it was 85.8%; in test [3], 98.1%.
The corresponding values for `Cc1cc(Nc2cc(N3CCN(C)CC3)nc(Sc3ccc(NC(=O)C4CC4)cc3)n2)n[nH]1` [Tozasertib] + Nc1ccn([C@@H]2O[C@H](CO)[C@@H](O)C2(F)F)c(=O)n1 [gemcitabine] (first compound 0.03 µM, partner dose 0.002 µM) are 90.3%, 59.5% and 110%.
